The results in this text go back to the RNAGym collection of RNA variant scans (doi:10.7554/elife.90254).

The source gives no read counts; variants with many changes may rest on few reads.

B1: LINE1-mini (parent)
chain: GGCAGAGCUCAACACAGCGUGGCAAAGUGGCUGUGGCUAGACUGCC

The variants in the data set derive from B1. Description: self-cleavage, relative activity (ratio to wild type); higher = more cleavage; in vitro, sequencing; the parent is a self-cleaving ribozyme.
Turning to GGCAGAGUUCAACACAGCGUGGCAAAGAGGCUGUGGCGAGACUGCC [C8U U28A U38G], the self-cleavage worked out at 0.02. Take GGCAGAGCUCAACAAAGCUUGGCAAAGUGGCUGUGGCUAGAUUGCC [C15A G19U C42U]: the self-cleavage came to 0.38. As to GGCAGAGCUCAACACAGCGGGGCAAAGCGGAUGUGACUAGAAUGCC [U20G U28C C31A G36A C42A], the self-cleavage came out at 0.

Consider GGCAGAGCUUAACAGAGCGUGGCAACUUGGCUGUGGCUAGACUGCC [C10U C15G A26C G27U], for which the self-cleavage came out at 0.07. For GUCACAGCUAAACAGAACGUGGCAAAGUGGCUGUGGCUAGACUGCC [G2U G5C C10A C15G G17A], the self-cleavage was found to be 0.02. Take GGCAGAGGUUAACACAGCGUGGCAAAGUGGCUGUGGCUCAACUGCC [C8G C10U A39C G40A]: the self-cleavage was determined as 0.02.

On to GUAAGACCUCAACACAGCGUGGCAAAGUGGCUGAGGCUAGGCUGCC [G2U C3A G7C U34A A41G], for which the self-cleavage is 0.03. As for AGCAGAGCUCAACACAGAGUGGCAAAGUGGUUGUGGCUAAACUGCC [G1A C18A C31U G40A], the self-cleavage is 0.02. For the variant GGCAGAGCUCAACACAGCGUGGCAAAGUGGAUGUGGCUAUAAUGCC [C31A G40U C42A], the self-cleavage was 0.02. As for GGCAGAGCUCAACACAGCGUGGCUAAGUGGCUGUGCCUAGUCUGCC [A24U G36C A41U], the self-cleavage came to 0.39.

For GGCAGAGCUCAAAACAGCGUGGCAAAGUGGAUCUGGCUACACUGCC [C13A C31A G33C G40C], the self-cleavage amounted to 0.01. As to GGCAUAGCUCAACACAGCGUGGCAAAGUGUCUGUGGUUAGACUGAC [G5U G30U C37U C45A], the self-cleavage came to 0.26. GACAGACCUCUACGCAGCGUGGCAAAGUGGCUGUGGCUAGACUGCC [G2A G7C A11U A14G]: the self-cleavage stood at 0.03. Consider GGCAGAGCUCAACACAGAUUUGCAACGUGGCUGUGGCUAGACUGCC [C18A G19U G21U A26C], for which the self-cleavage was 1.85.

For GGCAGACCUCAACACAGCGUGGCAAAGUGGCUGUCGCUAGACUACU [G7C G35C G44A C46U], the self-cleavage amounted to 0.08. Then GGCAGAACUCAACAAAGCGUGGCAAAGUGGAUGUGGCUACACCGCC [G7A C15A C31A G40C U43C], with 0.07; and GGUAGAGCUGAACACAGCGUAGCCUAGUGGCUGUGGCUAGACUCCC [C3U C10G G21A A24C A25U G44C], with 0.12; and GGCGGAGCUCAACACAGCGUGGCACAGUGGCUGUGUCUAGACUGCU [A4G A25C G36U C46U], with 0.01. GGCAGAGCUCAACACAGCUUGGCAAAGUGGGUGUGGCUACACUGCC [G19U C31G G40C]: the self-cleavage was found to be 0.03. For GGCAGAGCUCAACACAGCGUGGUAAGGUGGCCGUGGCUAGACUGCC [C23U A26G U32C], the self-cleavage came out at 0.18. The result for GGCAGAGCUCAAGAGAGCGUGGCAAAGUGGCUGUGGCAAGACUGCC [C13G C15G U38A] reads 0.04.

As for GGUAGAGCACAACACAGCGUGGGAAAGUGGCUGUGGCUAGACUGCC [C3U U9A C23G], the self-cleavage turned out to be 0.31. As for GGCGGAGAUCACCACAGCGUAGCAAAGUGGCUGUGGCUAGACUGCC [A4G C8A A12C G21A], the self-cleavage was determined as 0.02. GACAGAGCUCCAACCAGCGUGGCAAAGUGGCUGUGGCCAGACUGCC [G2A A11C C13A A14C U38C]: the self-cleavage was determined as 0.03. Turning to GGCGGAGCUCAACACGGCGUGGCCAGGUGGCUGUGGCUAGACUGCC [A4G A16G A24C A26G], the self-cleavage was 0. The result for GGCAGGGCUCAACACAGCGUGGCAAUGUGGCUGUCGCUAGACUGCC [A6G A26U G35C] reads 0.04. Turning to GGCAGAGCUCAACACACCGUGGCAAAGUGGCUAUGGCCAGACUGCC [G17C G33A U38C], the self-cleavage was found to be 0.03. Then GGCAGAGCUCAACACAGCGUGGCAAAGUGGCUGGGGCUUGACUGCA [U34G A39U C46A], with 0.2; and GGCAGAGUUCAACAGAGCGUGGCAAAGUGGCUGUCGCUAGAAUGCC [C8U C15G G35C C42A], with 0.11. Consider GGAAGAGCUCAACACAGCGUGGCAAAGUGGCUGUAGCUAGUCUGCC [C3A G35A A41U], for which the self-cleavage amounted to 0.06. Take GGAAGAGCUCAAUACUGCGUGGCAAAGUGGCUGUGGCUAGACUGCC [C3A C13U A16U]: the self-cleavage came to 0.07. With GGCCUAGCUCAACACAGCGUGGCAAAGUAGCUGUGGCUAGACUGCC [A4C G5U G29A], the self-cleavage came out at 0.11. As for GGCAGAGUUCAAUACAGCGUGGCCUAAUGGCUGUGGCUAGACUGCC [C8U C13U A24C A25U G27A], the self-cleavage came out at 0.05. With GGCAGAGCUGAACACAGCGUGGUAAAUUUGCUGUGGCUAGACUGCC [C10G C23U G27U G29U], the self-cleavage came out at 0.13. With GGCAGAGCUCAACACAGCGUGGGUAAGUGGCUGUGGCUAGACUUCC [C23G A24U G44U], the self-cleavage was found to be 0.13.

As for GGCAGAGCUCCACACACGGUGGCAAAGUGGCUGUGACUAGACUGCC [A11C G17C C18G G36A], the self-cleavage stood at 0.02. The result for GUCAGAGCUCACAACAGCGUGGCACAGUGGCUGUGGCUAGAGUGCC [G2U A12C C13A A25C C42G] reads 0.02; that for GGCAGAGCUGAACACAGCGUGGCAAAGUGGCAGCGGCUAGACUGCC [C10G U32A U34C], 0.02. Then GGCAGAGCUCAACACAGCGGUGCAAAGUGGCUGUGGCUGGAAUGCC [U20G G21U A39G C42A], with 0.02; and GGAAGAGUCCAACACAGCGUGGCAAAGUCGCUGUGGCUAGACUGCC [C3A C8U U9C G29C], with 0.05; and GGCAGAACUUAACAAAACGUGGCAAAGUGGCUGUGGUUAGACUGCC [G7A C10U C15A G17A C37U], with 0.05.

For the variant UGCAGAGCUCGACACAACGUGGCAAAGUGGCAGUGGCUAGAGUGCC [G1U A11G G17A U32A C42G], the self-cleavage is 0.01.

Regarding GUCAGAGCUCAAUACCGCGUGGCAAAGUGGCUGUGUCGAGACUACC [G2U C13U A16C G36U U38G G44A], the self-cleavage stood at 0. The result for GGCAUAGCUCAACACAGCGUGGCAAAGUGGAUGUGGCUAGACUGGC [G5U C31A C45G] reads 0.03. With GGCAGAGUUCAACACCGCGUGGCAAGGUGGCUGUUGCUAGACUGCC [C8U A16C A26G G35U], the self-cleavage was determined as 0.14. Take GGCAGAGCUCAAGACACCGUGGCAAAUUGGCUGUGGCUAGACUGCC [C13G G17C G27U]: the self-cleavage is 0.03. Take GGCAGAGAUAAACACAGCGUGGCAAAGUGGCUGUGGCUAGACGGCC [C8A C10A U43G]: the self-cleavage was 0. GCAAGAGCUCAACAAAGCGUGUCAAAGUGGCUGUGGCUAGACUGCC [G2C C3A C15A G22U]: the self-cleavage came to 0.08. UGCAGAGCUCAAAACAGCGUGGCAAAGUGGCUGUGGCUAGAGUGCC [G1U C13A C42G]: the self-cleavage worked out at 0.04. On to GGCAGAGCUCAACACAGGGUGGCAAAGUGGCUGUGGAUAUAAUGCC [C18G C37A G40U C42A], for which the self-cleavage came to 0.11. As for GGCAGAGCUCGACCGAGCGUGGCAAAGUGGCUGUGUCUAGACUGCC [A11G A14C C15G G36U], the self-cleavage stood at 0.02. Consider GGCAUCGCUCAAGACAGCAUGGCAAAGUGGCUGUGGCUAGACUGCC [G5U A6C C13G G19A], for which the self-cleavage came out at 0.13. As to GGCAGAGCUCAAGACCGCGUGGCAAACUGACUGUGGCUAGACUGCC [C13G A16C G27C G30A], the self-cleavage was 0.05. As for GGCAAGGCUCAACUCAGCGUGACAAAGUGGCUGUGGCUAGACUGCC [G5A A6G A14U G22A], the self-cleavage worked out at 0.15. The result for GGCAGAGCUAAACACUGCGUGGCAAAGUGGCUGUGGCUAGUCCGCC [C10A A16U A41U U43C] reads 0.01; that for GGCAGAGCUCAACACAGCGUGUGAAAGCGGCUGGCGAUAGACUGCC [G22U C23G U28C U34G G35C C37A], 0.03.
